# Values joined by “and” are separate entries in the source; they are usually repeats but may differ in a detail not shown here. Equal values may be shown once. At least one peptide structure holds a part that was inferred or is arguable (an end, a ring closure or a residue). Some entries repeat one wording, which the source may state once for all of them. Starred links: 1 amine or outer side, 2 acyl side, 3 side chain; linkers in the order of their positions; H or OH if unused. Non-standard residues stand in square brackets, D forms with d. Residues, ends and D or L forms follow the SMILES beside them. Groups on a side chain read outwards from the residue. *: point of attachment. X1 = CC(C)(CN([C@@H](CCC(=O)O)C(=O)[*:2])[*:1])NC(=O)[C@@H](N)Cc1c[nH]cn1; C18 diacid = O=C(O)CCCCCCCCCCCCCCCCC(=O)*; γGlu = O=C(O)[C@H](CCC(=O)[*:2])N[*:1]; Dap = NC[C@H](N)C(=O)O; AEEA = NCCOCCOCC(=O)O; Aib = CC(C)(N)C(=O)O
# How the values were obtained:
# [1] = target: T1, glucagon receptor (GCGR) (Homo sapiens, UniProt P47871); assay: HTRF cAMP assay in HEK293/GCGR/Gα15 cells; format: cell-based; settings: dose-dependent format, glucagon positive control
# T1 construct: expressed in transfected cells; host or cells: HEK293 co-expressing Gα15
# [2] = GLP-1 analog adhesion to plastic (transfer between 5 polypropylene tubes, HPLC); format: physicochemical; settings: for Area (Mean), Initial Tube / Area Ratio (Initial/Final Tube, %) / Area (Mean), Final Tube / HPLC Peak Areas, Final Tube / HPLC Peak Areas, Initial Tube: 1.6 μg/mL in PBS; for Area (Mean), Final Tube: after transfer; for HPLC Peak Areas, Final Tube: after transfer between 5 polypropylene tubes; for HPLC Peak Areas, Final Tube / HPLC Peak Areas, Initial Tube: Injection 1 and 2; for adhesion to plastic compared to semaglutide: in words
# [3] = target: T2, GLP-1R (Homo sapiens, UniProt P43220); assay: Cell-Based Tag-Lite GLP-1R Receptor Binding FRET Assay; parameters: purchased; settings: for binding to the GLP-1 receptor: in words
# [4] = target: T2, GLP-1R; assay: CRE-Luciferase Reporter Assay (recombinant HEK293 cells); format: cell-based; parameters: expressed in transfected cells; host or cells: HEK293; settings: for biological IC50 compared with the IC50 of liraglutide and semaglutide: in words; for IC50: GLP-1R CRE-luciferase, HEK293, read-out: biological IC50
# [5] = GLP-1 analog stability in formulation (PBS, HPLC); format: physicochemical; settings: for Concentration / HPLC Purity: Injection 1 and 2; for concentration of the formulation after storage: remained consistent over storage; for change of purity after storage: storage at 4° C. or −80° C. for 7 days (semaglutide: 4° C. for 7 days), in words
# [6] = target: T3, human GIPR (Homo sapiens, UniProt P48546); assay: Cell-based human GIPR luciferase reporter assay (recombinant Huh7 cells); settings: Huh7 CRE-luciferase, compared to tirzepatide
# T3 construct: recombinant Huh7 cells expressing the native GIPR; expressed in transfected cells; host or cells: Huh7
# T3 sequence (P48546 22-466): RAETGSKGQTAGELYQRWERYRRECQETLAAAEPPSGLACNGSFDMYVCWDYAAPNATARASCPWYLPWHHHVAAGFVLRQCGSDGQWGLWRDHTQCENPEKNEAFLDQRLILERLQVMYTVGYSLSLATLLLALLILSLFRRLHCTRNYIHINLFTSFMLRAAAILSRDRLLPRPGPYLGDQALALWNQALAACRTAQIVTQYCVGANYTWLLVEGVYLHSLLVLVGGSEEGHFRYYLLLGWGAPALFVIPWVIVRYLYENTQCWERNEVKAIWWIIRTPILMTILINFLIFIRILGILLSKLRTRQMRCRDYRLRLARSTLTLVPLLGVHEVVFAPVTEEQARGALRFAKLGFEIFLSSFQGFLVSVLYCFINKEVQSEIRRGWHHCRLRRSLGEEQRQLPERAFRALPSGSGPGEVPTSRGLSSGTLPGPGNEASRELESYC
# T2 sequence (P43220 24-463): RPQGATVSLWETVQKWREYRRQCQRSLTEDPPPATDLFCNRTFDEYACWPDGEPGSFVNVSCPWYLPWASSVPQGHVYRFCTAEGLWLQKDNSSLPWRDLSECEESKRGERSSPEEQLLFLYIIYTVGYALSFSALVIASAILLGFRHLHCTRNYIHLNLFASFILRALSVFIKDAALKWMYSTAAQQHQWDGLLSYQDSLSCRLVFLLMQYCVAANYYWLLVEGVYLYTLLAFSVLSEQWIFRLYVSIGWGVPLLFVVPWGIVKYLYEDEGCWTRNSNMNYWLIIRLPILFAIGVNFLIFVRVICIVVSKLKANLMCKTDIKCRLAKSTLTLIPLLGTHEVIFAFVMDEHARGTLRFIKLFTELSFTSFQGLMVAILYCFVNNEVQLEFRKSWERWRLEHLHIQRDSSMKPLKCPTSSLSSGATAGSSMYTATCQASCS
# T1 sequence (P47871 26-477, species assumed): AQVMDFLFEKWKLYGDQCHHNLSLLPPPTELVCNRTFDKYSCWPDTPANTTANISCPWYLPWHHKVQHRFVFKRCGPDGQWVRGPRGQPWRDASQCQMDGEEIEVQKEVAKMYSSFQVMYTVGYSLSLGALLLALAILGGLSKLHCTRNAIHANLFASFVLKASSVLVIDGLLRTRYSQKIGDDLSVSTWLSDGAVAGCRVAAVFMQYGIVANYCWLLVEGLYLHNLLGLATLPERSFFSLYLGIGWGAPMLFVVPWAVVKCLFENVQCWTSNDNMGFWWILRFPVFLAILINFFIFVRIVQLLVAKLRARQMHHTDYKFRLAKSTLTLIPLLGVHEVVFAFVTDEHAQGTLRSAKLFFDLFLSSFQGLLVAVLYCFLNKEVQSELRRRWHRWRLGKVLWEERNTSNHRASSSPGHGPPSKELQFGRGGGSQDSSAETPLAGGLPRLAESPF
smiles,measurement,setting,value
CC[C@H](C)[C@H](NC(=O)[C@H](Cc1ccccc1)NC(=O)[C@H](CCC(=O)O)NC(=O)[C@H](CCCCNC(=O)COCCOCCNC(=O)COCCOCCNC(=O)CC[C@H](NC(=O)CCCCCCCCCCCCCCCCC(=O)O)C(=O)O)NC(=O)[C@H](C)NC(=O)[C@H](C)NC(=O)[C@H](CCC(N)=O)NC(=O)CNC(=O)[C@H](CCC(=O)O)NC(=O)[C@H](CC(C)C)NC(=O)C(C)(C)NC(=O)[C@H](CO)NC(=O)[C@H](CO)NC(=O)[C@@H](NC(=O)[C@H](CC(=O)O)NC(=O)[C@H](CO)NC(=O)[C@@H](NC(=O)[C@H](Cc1ccccc1)NC(=O)[C@@H](NC(=O)CNC(=O)[C@H](CCC(=O)O)NC(=O)C(C)(C)NC(=O)[C@@H](N)Cc1ccc(O)cc1)[C@@H](C)O)[C@@H](C)O)C(C)C)C(=O)N[C@@H](C)C(=O)N[C@@H](Cc1c[nH]c2ccccc12)C(=O)N[C@@H](CC(C)C)C(=O)N[C@H](C(=O)N[C@@H](CCCNC(=N)N)C(=O)NCC(=O)N[C@@H](CCCNC(=N)N)C(=O)NCC(=O)O)C(C)C [APi3709] (H-Y[Aib]EGTFTSDVSS[Aib]LEGQAAK([AEEA-AEEA-γGlu-C18 diacid])EFIAWLVRGRG-OH; N-terminus and C-terminus assumed),GCGR activation (cAMP production),[1],None
same,"Area (Mean), Initial Tube",[2],22.3
same,"Area Ratio (Initial/Final Tube, %)",[2],86%
same,"Area (Mean), Final Tube",[2],19.1
same,"HPLC Peak Areas, Final Tube",[2],20.9 and 17.3
same,"HPLC Peak Areas, Initial Tube",[2],21.7 and 22.8
same,adhesion to plastic compared to semaglutide,[2],less adhesion to plastic
same,IC50,[3]; absence of HSA,2.48 µM
same,binding to the GLP-1 receptor,[3]; absence of HSA,dose dependent binding
same,binding to the GLP-1 receptor,[3]; presence of 2% HSA,dose dependent binding
same,IC50,[3]; with 2% HSA,129 µM
same,biological IC50 compared with the IC50 of liraglutide and semaglutide,[4],significantly different
same,Concentration,"[5]; A: −80° C., 7 d",970 µg/mL and 960 µg/mL
same,HPLC Purity,"[5]; A: −80° C., 7 d",99.54% and 99.56%
same,Concentration,"[5]; B: 4° C., 1 d",1030 µg/mL
same,HPLC Purity,"[5]; B: 4° C., 1 d",99.55%
same,Concentration,"[5]; C: 4° C., 3 d",980 µg/mL and 970 µg/mL
same,HPLC Purity,"[5]; C: 4° C., 3 d",99.54% and 99.56%
same,Concentration,"[5]; D: 4° C., 7 d",1020 µg/mL
same,HPLC Purity,"[5]; D: 4° C., 7 d",99.57% and 99.58%
same,Concentration,[5]; Fresh,980 µg/mL
same,HPLC Purity,[5]; Fresh,99.57% and 99.55%
same,concentration of the formulation after storage,[5],1000 µg/mL
same,change of purity after storage,[5],No significant change of purity
CC[C@H](C)[C@H](NC(=O)[C@H](Cc1ccccc1)NC(=O)[C@H](CCC(=O)O)NC(=O)[C@H](CCCCNC(=O)COCCOCCNC(=O)COCCOCCNC(=O)CC[C@H](NC(=O)CCCCCCCCCCCCCCCCC(=O)O)C(=O)O)NC(=O)[C@H](C)NC(=O)[C@H](C)NC(=O)[C@H](CCC(N)=O)NC(=O)CNC(=O)[C@H](CCC(=O)O)NC(=O)[C@H](CC(C)C)NC(=O)C(C)(C)NC(=O)[C@H](CO)NC(=O)[C@H](CO)NC(=O)[C@@H](NC(=O)[C@H](CC(=O)O)NC(=O)[C@H](CO)NC(=O)[C@@H](NC(=O)[C@H](Cc1ccccc1)NC(=O)[C@@H](NC(=O)CNC(=O)[C@H](CCC(=O)O)NCC(C)(C)NC(=O)[C@@H](N)Cc1c[nH]cn1)[C@@H](C)O)[C@@H](C)O)C(C)C)C(=O)N[C@@H](C)C(=O)N[C@@H](Cc1c[nH]c2ccccc12)C(=O)N[C@@H](CC(C)C)C(=O)N[C@H](C(=O)N[C@@H](CCCNC(=N)N)C(=O)NCC(=O)N[C@@H](CCCNC(=N)N)C(=O)NCC(=O)O)C(C)C [APi3710] (H-[X1]GTFTSDVSS[Aib]LEGQAAK([AEEA-AEEA-γGlu-C18 diacid])EFIAWLVRGRG-OH; N-terminus and C-terminus assumed),GCGR activation (cAMP production),[1],None
same,"Area (Mean), Initial Tube",[2],15.2
same,"Area (Mean), Final Tube",[2],14.2
same,"HPLC Peak Areas, Final Tube",[2],12.7 and 15.7
same,"HPLC Peak Areas, Initial Tube",[2],14.0 and 16.4
same,adhesion to plastic compared to semaglutide,[2],less adhesion to plastic
same,IC50,[3]; absence of HSA,4.08 µM
same,binding to the GLP-1 receptor,[3]; absence of HSA,dose dependent binding
same,binding to the GLP-1 receptor,[3]; presence of 2% HSA,dose dependent binding
same,IC50,[3]; with 2% HSA,809 µM
same,biological IC50 compared with the IC50 of liraglutide and semaglutide,[4],significantly different
CC[C@H](C)[C@H](NC(=O)[C@H](Cc1ccccc1)NC(=O)[C@H](CCC(=O)O)NC(=O)[C@H](CCCCNC(=O)COCCOCCNC(=O)COCCOCCNC(=O)CC[C@H](NC(=O)CCCCCCCCCCCCCCCCC(=O)O)C(=O)O)NC(=O)[C@H](C)NC(=O)[C@H](C)NC(=O)[C@H](CCC(N)=O)NC(=O)CNC(=O)[C@H](CCC(=O)O)NC(=O)[C@H](CC(C)C)NC(=O)C(C)(C)NC(=O)[C@H](CO)NC(=O)[C@H](CO)NC(=O)[C@@H](NC(=O)[C@H](CC(=O)O)NC(=O)[C@H](CO)NC(=O)[C@@H](NC(=O)[C@H](Cc1ccccc1)NC(=O)[C@@H](NC(=O)CNC(=O)[C@H](CCC(=O)O)NC(=O)C(C)(C)NC(=O)[C@@H](N)Cc1c[nH]cn1)[C@@H](C)O)[C@@H](C)O)C(C)C)C(=O)N[C@@H](C)C(=O)N[C@@H](Cc1c[nH]c2ccccc12)C(=O)N[C@@H](CC(C)C)C(=O)N[C@H](C(=O)N[C@@H](CCCNC(=N)N)C(=O)NCC(=O)N[C@@H](CCCNC(=N)N)C(=O)NCC(=O)O)C(C)C [APi3711] (H-H[Aib]EGTFTSDVSS[Aib]LEGQAAK([AEEA-AEEA-γGlu-C18 diacid])EFIAWLVRGRG-OH; N-terminus and C-terminus assumed),GCGR activation (cAMP production),[1],None
same,"Area (Mean), Initial Tube",[2],20.0
same,"Area Ratio (Initial/Final Tube, %)",[2],91%
same,"Area (Mean), Final Tube",[2],18.2
same,"HPLC Peak Areas, Final Tube",[2],17.0 and 19.3
same,"HPLC Peak Areas, Initial Tube",[2],19.5 and 20.5
same,adhesion to plastic compared to semaglutide,[2],less adhesion to plastic
same,IC50,[3]; absence of HSA,0.898 µM
same,binding to the GLP-1 receptor,[3]; absence of HSA,dose dependent binding
same,binding to the GLP-1 receptor,[3]; presence of 2% HSA,dose dependent binding
same,IC50,[3]; with 2% HSA,77.8 µM
same,IC50,[4],~0.00066 µM
same,biological IC50 compared with the IC50 of liraglutide and semaglutide,[4],similar
same,Concentration,"[5]; A: −80° C., 7 d",1000 µg/mL
same,HPLC Purity,"[5]; A: −80° C., 7 d",99.62%
same,Concentration,"[5]; B: 4° C., 1 d",1000 µg/mL
same,HPLC Purity,"[5]; B: 4° C., 1 d",99.61% and 99.64%
same,Concentration,"[5]; C: 4° C., 3 d",890 µg/mL
same,HPLC Purity,"[5]; C: 4° C., 3 d",99.62% and 99.63%
same,Concentration,"[5]; D: 4° C., 7 d",1000 µg/mL
same,HPLC Purity,"[5]; D: 4° C., 7 d",99.64%
same,Concentration,[5]; Fresh,1000 µg/mL
same,HPLC Purity,[5]; Fresh,99.63% and 99.62%
same,concentration of the formulation after storage,[5],1000 µg/mL
same,change of purity after storage,[5],No significant change of purity
CC[C@H](C)[C@H](NC(=O)[C@H](Cc1ccccc1)NC(=O)[C@H](CCC(=O)O)NC(=O)[C@H](CCCCNC(=O)COCCOCCNC(=O)COCCOCCNC(=O)CC[C@H](NC(=O)CCCCCCCCCCCCCCCCC(=O)O)C(=O)O)NC(=O)[C@H](C)NC(=O)[C@H](C)NC(=O)[C@H](CCC(N)=O)NC(=O)CNC(=O)[C@H](CCC(=O)O)NC(=O)[C@H](CC(C)C)NC(=O)C(C)(C)NC(=O)[C@H](CO)NC(=O)[C@H](CO)NC(=O)[C@@H](NC(=O)[C@H](CC(=O)O)NC(=O)[C@H](CO)NC(=O)[C@@H](NC(=O)[C@H](Cc1ccccc1)NC(=O)[C@@H](NC(=O)CNC(=O)[C@H](CCC(=O)O)NC(=O)C(C)(C)NC(=O)[C@@H](N)Cc1c[nH]cn1)[C@@H](C)O)[C@@H](C)O)C(C)C)C(=O)N[C@@H](C)C(=O)N[C@@H](Cc1c[nH]c2ccccc12)C(=O)N[C@@H](CC(C)C)C(=O)N[C@H](C(=O)N[C@@H](CCCNC(=N)N)C(=O)NCC(=O)N[C@@H](CN)C(=O)NCC(=O)O)C(C)C [APi3712] (H-H[Aib]EGTFTSDVSS[Aib]LEGQAAK([AEEA-AEEA-γGlu-C18 diacid])EFIAWLVRG[Dap]G-OH; N-terminus and C-terminus assumed),GCGR activation (cAMP production),[1],None
same,"Area (Mean), Initial Tube",[2],21.9
same,"Area (Mean), Final Tube",[2],20.5
same,"HPLC Peak Areas, Final Tube",[2],19.8 and 21.1
same,"HPLC Peak Areas, Initial Tube",[2],21.3 and 22.5
same,adhesion to plastic compared to semaglutide,[2],less adhesion to plastic
same,IC50,[3]; absence of HSA,1.7 µM
same,binding to the GLP-1 receptor,[3]; absence of HSA,dose dependent binding
same,binding to the GLP-1 receptor,[3]; presence of 2% HSA,dose dependent binding
same,IC50,[3]; with 2% HSA,179 µM
same,IC50,[4],~0.00066 µM
same,biological IC50 compared with the IC50 of liraglutide and semaglutide,[4],similar
same,GIPR agonist activity,[6],no GIPR agonist activity

# Reference: US20250074964A1 (Ambio, Inc., priority 2023, published 2025)
